Measurements: article PMC9911399, “Two distinct binding modes provide the RNA-binding protein RbFox with extraordinary sequence specificity”
Positions count from the first letter of the chain named. The list shows a part of the results.

T1: RBFOX1 RRM RbFoxmut (Fox-RRM*) (Homo sapiens, UniProt Q9NWB1 109-208, R118D;E147R;N151S;E152T)
T1 sequence: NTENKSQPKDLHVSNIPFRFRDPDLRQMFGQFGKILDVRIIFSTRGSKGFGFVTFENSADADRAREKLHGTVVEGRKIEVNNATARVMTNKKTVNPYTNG

B1: AUACGUC (DNA:RNA)
RNA: GGGAGACCGGAAUUCAGAUUGUCCAUACGUCUUAAAUCCCGUCGUAGCCACCA
DNA 1: CAATCTGAATTCCGGTCTCCC
DNA 2: TGGTGGCTACGACGGGATT
B2: GCAUAGA (DNA:RNA)
RNA: B1 RNA with A25G, U26C, C28U, G29A, U30G, C31A
DNA 1: CAATCTGAATTCCGGTCTCCC
DNA 2: TGGTGGCTACGACGGGATT
B3: GGCACGA (DNA:RNA)
RNA: GGGAGACCGGAAUUCAGAUUGUCCGGCACGAUUAAAUCCCGUCGUAGCCACCA
DNA 1: CAATCTGAATTCCGGTCTCCC
DNA 2: TGGTGGCTACGACGGGATT
B4: GCCACAU (DNA:RNA)
RNA: B3 RNA with G26C, G30A, A31U
DNA 1: CAATCTGAATTCCGGTCTCCC
DNA 2: TGGTGGCTACGACGGGATT
B5: UUGCUGC (DNA:RNA)
RNA: B1 RNA with A25U, A27G, G29U, U30G
DNA 1: CAATCTGAATTCCGGTCTCCC
DNA 2: TGGTGGCTACGACGGGATT
B6: GUAUUUG (DNA:RNA)
RNA: B1 RNA with A25G, C28U, G29U, C31G
DNA 1: CAATCTGAATTCCGGTCTCCC
DNA 2: TGGTGGCTACGACGGGATT
B7: CAGCAGC (DNA:RNA)
RNA: B1 RNA with A25C, U26A, A27G, G29A, U30G
DNA 1: CAATCTGAATTCCGGTCTCCC
DNA 2: TGGTGGCTACGACGGGATT
B8: UCGUUCA (DNA:RNA)
RNA: B3 RNA with G25U, G26C, C27G, A28U, C29U, G30C
DNA 1: CAATCTGAATTCCGGTCTCCC
DNA 2: TGGTGGCTACGACGGGATT
B9: CGUGCAG (DNA:RNA)
RNA: B3 RNA with G25C, C27U, A28G, G30A, A31G
DNA 1: CAATCTGAATTCCGGTCTCCC
DNA 2: TGGTGGCTACGACGGGATT
B10: AAUCCCU (DNA:RNA)
RNA: B1 RNA with U26A, A27U, G29C, U30C, C31U
DNA 1: CAATCTGAATTCCGGTCTCCC
DNA 2: TGGTGGCTACGACGGGATT
B11: UACUGUG (DNA:RNA)
RNA: B1 RNA with A25U, U26A, A27C, C28U, C31G
DNA 1: CAATCTGAATTCCGGTCTCCC
DNA 2: TGGTGGCTACGACGGGATT
B12: CAUGAUC (DNA:RNA)
RNA: B1 RNA with A25C, U26A, A27U, C28G, G29A
DNA 1: CAATCTGAATTCCGGTCTCCC
DNA 2: TGGTGGCTACGACGGGATT
B13: AACUUUC (DNA:RNA)
RNA: B1 RNA with U26A, A27C, C28U, G29U
DNA 1: CAATCTGAATTCCGGTCTCCC
DNA 2: TGGTGGCTACGACGGGATT
B14: CUUUGGA (DNA:RNA)
RNA: B1 RNA with A25C, A27U, C28U, U30G, C31A
DNA 1: CAATCTGAATTCCGGTCTCCC
DNA 2: TGGTGGCTACGACGGGATT
B15: CGCGGUU (DNA:RNA)
RNA: B1 RNA with A25C, U26G, A27C, C28G, C31U
DNA 1: CAATCTGAATTCCGGTCTCCC
DNA 2: TGGTGGCTACGACGGGATT
B16: UGGAAGC (DNA:RNA)
RNA: B3 RNA with G25U, C27G, C29A, A31C
DNA 1: CAATCTGAATTCCGGTCTCCC
DNA 2: TGGTGGCTACGACGGGATT
B17: ACUUUAC (DNA:RNA)
RNA: B1 RNA with U26C, A27U, C28U, G29U, U30A
DNA 1: CAATCTGAATTCCGGTCTCCC
DNA 2: TGGTGGCTACGACGGGATT
B18: AGCGCGU (DNA:RNA)
RNA: B3 RNA with G25A, A28G, A31U
DNA 1: CAATCTGAATTCCGGTCTCCC
DNA 2: TGGTGGCTACGACGGGATT
B19: UUCAGAG (DNA:RNA)
RNA: B1 RNA with A25U, A27C, C28A, U30A, C31G
DNA 1: CAATCTGAATTCCGGTCTCCC
DNA 2: TGGTGGCTACGACGGGATT
B20: AGAAAUA (DNA:RNA)
RNA: B1 RNA with U26G, C28A, G29A, C31A
DNA 1: CAATCTGAATTCCGGTCTCCC
DNA 2: TGGTGGCTACGACGGGATT
B21: CUUCAGA (DNA:RNA)
RNA: B1 RNA with A25C, A27U, G29A, U30G, C31A
DNA 1: CAATCTGAATTCCGGTCTCCC
DNA 2: TGGTGGCTACGACGGGATT
B22: GCCCGCA (DNA:RNA)
RNA: B3 RNA with G26C, A28C, C29G, G30C
DNA 1: CAATCTGAATTCCGGTCTCCC
DNA 2: TGGTGGCTACGACGGGATT
B23: ACGUUCG (DNA:RNA)
RNA: B1 RNA with U26C, A27G, C28U, G29U, U30C, C31G
DNA 1: CAATCTGAATTCCGGTCTCCC
DNA 2: TGGTGGCTACGACGGGATT
B24: CGCGCAU (DNA:RNA)
RNA: B3 RNA with G25C, A28G, G30A, A31U
DNA 1: CAATCTGAATTCCGGTCTCCC
DNA 2: TGGTGGCTACGACGGGATT
B25: GGAUCGG (DNA:RNA)
RNA: B3 RNA with C27A, A28U, A31G
DNA 1: CAATCTGAATTCCGGTCTCCC
DNA 2: TGGTGGCTACGACGGGATT
B26: GUGACGC (DNA:RNA)
RNA: B3 RNA with G26U, C27G, A31C
DNA 1: CAATCTGAATTCCGGTCTCCC
DNA 2: TGGTGGCTACGACGGGATT
B27: CGUGGGG (DNA:RNA)
RNA: B3 RNA with G25C, C27U, A28G, C29G, A31G
DNA 1: CAATCTGAATTCCGGTCTCCC
DNA 2: TGGTGGCTACGACGGGATT
B28: AUAGACG (DNA:RNA)
RNA: B1 RNA with C28G, G29A, U30C, C31G
DNA 1: CAATCTGAATTCCGGTCTCCC
DNA 2: TGGTGGCTACGACGGGATT
B29: CUGCUAA (DNA:RNA)
RNA: B1 RNA with A25C, A27G, G29U, U30A, C31A
DNA 1: CAATCTGAATTCCGGTCTCCC
DNA 2: TGGTGGCTACGACGGGATT
B30: CCCAGGG (DNA:RNA)
RNA: B3 RNA with G25C, G26C, C29G, A31G
DNA 1: CAATCTGAATTCCGGTCTCCC
DNA 2: TGGTGGCTACGACGGGATT
B31: UCACUGA (DNA:RNA)
RNA: B1 RNA with A25U, U26C, G29U, U30G, C31A
DNA 1: CAATCTGAATTCCGGTCTCCC
DNA 2: TGGTGGCTACGACGGGATT

Biological target: T1, RBFOX1 RRM RbFoxmut (Fox-RRM*)
Assay: EMSA; HiTS-Eq, 1 nM pool, 10 min; buffer printed only for the single-RNA assays: 10 mM Tris pH 7.5, 150 mM NaCl, 3.4 mM EDTA, 0.001% NP-40, 30 C
Conditions: tags: His6 N-terminal (pET28a); label: 5' 32P
In short: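 Relative association constants, normalised to the cognate motif, were derived by comparing read counts of each RNA species with those of the control reaction. The RNA sequenced was the free fraction, separated by 8% native PAGE after a 10 min equilibration in 50 µL of 1 nM 5′-radiolabelled RNA (7 randomized nucleotides) with increasing concentrations of purified wild-type or mutant RbFox RRM.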

| Binder | binding signal |
| --- | --- |
| B1 | 0.0725 KA relative to UGCAUGU |
| B2 | 0.132 KA relative to UGCAUGU |
| B3 | 0.226 KA relative to UGCAUGU |
| B4 | 0.0775 KA relative to UGCAUGU |
| B5 | 0.129 KA relative to UGCAUGU |
| B6 | 0.17 KA relative to UGCAUGU |
| B7 | 0.0908 KA relative to UGCAUGU |
| B8 | 0.117 KA relative to UGCAUGU |
| B9 | 0.09 KA relative to UGCAUGU |
| B10 | 0.0776 KA relative to UGCAUGU |
| B11 | 0.12 KA relative to UGCAUGU |
| B12 | 0.0812 KA relative to UGCAUGU |
| B13 | 0.0515 KA relative to UGCAUGU |
| B14 | 0.0574 KA relative to UGCAUGU |
| B15 | 0.103 KA relative to UGCAUGU |
| B16 | 0.0933 KA relative to UGCAUGU |

| Binder | binding signal |
| --- | --- |
| B17 | 0.114 KA relative to UGCAUGU |
| B18 | 0.118 KA relative to UGCAUGU |
| B19 | 0.0975 KA relative to UGCAUGU |
| B20 | 0.117 KA relative to UGCAUGU |
| B21 | 0.0961 KA relative to UGCAUGU |
| B22 | 0.0939 KA relative to UGCAUGU |
| B23 | 0.187 KA relative to UGCAUGU |
| B24 | 0.0928 KA relative to UGCAUGU |
| B25 | 0.176 KA relative to UGCAUGU |
| B26 | 0.0907 KA relative to UGCAUGU |
| B27 | 0.108 KA relative to UGCAUGU |
| B28 | 0.105 KA relative to UGCAUGU |
| B29 | 0.094 KA relative to UGCAUGU |
| B30 | 0.0633 KA relative to UGCAUGU |
| B31 | 0.092 KA relative to UGCAUGU |
